The text below walks through data of article PMC9972007.

For orientation: stoichiometry N means a count of units in the complex or per binding partner.

Assay [1] addresses Optineurin (human) (UniProt Q96CV9). Put plainly: SEC. (Size exclusion chromatography separates by hydrodynamic size, large species first.)
Assay [2] shares this target. Put plainly: dynamic light scattering.

Consider “Optineurin (a stretch of the chain, letters omitted) (natural protein; other documents disagree on this pair)”, for which the stoichiometry N with Optineurin (human) [1] and in the assay with Optineurin (human) [2] was 6 in each case.
